Sequences and labels used below:
B1: CPEB3 Ribozyme (parent)
chain: UAACAGGGGGCCACAGCAGAAGCGUUCACGUCGCAGCCCCUGUCAGAUUCUGGUGAAUCUGCGAAUUCUGCUGUAUAUCUC

Self-cleavage data for 84 variants are collected here from the RNAGym collection of RNA variant scans (doi:10.1093/nar/gkz1192).

Read counts are not given, so values of variants with three or more changes are uncertain.

Variants of B1 are the subject of the series. Put plainly: self-cleavage, relative activity (ratio to wild type); higher = more cleavage; in vitro, sequencing. The procedure, abridged: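 CPEB3 self-cleaving ribozyme mutant libraries were made by rounds of error-prone PCR, barcoded, and transcribed in vitro with T7 RNA polymerase for 5 hours at 37°C. Cleavage occurred during transcription and a 15 min DNase I step before EDTA stop. RNAs were reverse transcribed with template switching and Illumina-sequenced, with DNA sequencing mapping barcodes to variants. Relative activity is the variant's cleaved/total read fraction divided by wild type's (minimum 5 reads), averaged across three batches.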
On to A20G U26C A57U C59U U67C, for which the self-cleavage was determined as 0.09.

Turning to A20U A35G A56G U60C U78C, the self-cleavage is 0.28. The figure for A21G A28G A56U G61U U67C A77C is 0.04; for A20G A45U U58A U72C it is 0.14; for A20G A57U U69A it is 0.16. The result for A20U A28G U67C reads 0.06. The figure for A20U A64G U66C U74C is 0.23.

As to A20U A56U U80C, the self-cleavage is 0.11.

Take A20G U26C A64G U67C: the self-cleavage is 0.29.

Regarding A20U A35U G52U U78C U80A, the self-cleavage was 0.02.

For the variant A20G A56G G61A A64U, the self-cleavage is 0.14. The figure for A20U U43C U72C is 0.18; for A20G U25C A35U it is 0.12; for A20U U25A A75U it is 0.26. The result for A20U G36A U43A A64G U76C reads 0.12; that for A20U U31C C32U, 0.11. On to A20U A21U C38G U60C A64G, for which the self-cleavage stood at 0.05. A20G U43C U49A U58A: the self-cleavage worked out at 0.56. The result for A20G U26C U31A U41C U43C A64U U76C reads 0.25; that for A20U U25A G52C U58G, 0.09; that for A20G U25C U58C U66C U80C, 0.16.

Regarding A20G U60G A65G, the self-cleavage is 0.15. The result for A20U U51C U60C G70C U72A reads 0.17.

As to A20U U25C U41C C62A U72A, the self-cleavage amounted to 0.06. The figure for A20U U66C U69A is 0.17; for A20U A35U U60C U69A U74A U80C it is 0.1. The figure for A20U U31C G36A A57G is 0.11.

A20G U66C U69C: the self-cleavage came to 0.2. The result for A20G U25C C50A U60C reads 0.05. The result for A20U A47G A57U U58C reads 0.17; that for A20G U25C A47C U76C, 0.07. The result for A20U A57G U60C reads 0.19; that for A20G A57C U80A, 0.34.

For the variant A21G A35G U43A U60C C71U, the self-cleavage is 0.45.

With A20G U25G U67C G70U U80A, the self-cleavage is 0.12. The result for A20G C34A U48C U78C reads 0.19; that for A20G U41C U49C U51C, 0.26; that for A20U A28C C68A, 0.1. The result for A20G C32A G33C U72C reads 0.11; that for A20G U26C C39A U54A, 0.21. The result for A20G G46A U48C U78C reads 0.15; that for A20U C23A U72C, 0.28; that for A20G U31C U41C U67A, 0.34. As for A20G U25C C29U, the self-cleavage was found to be 0.31.

For the variant A20U C27A A65G, the self-cleavage is 0.22.

On to A20U U26C U51A G73A, for which the self-cleavage worked out at 0.13. The result for A20U U41C A56U U78C reads 0.27. The result for A20G U54A U69A reads 0.27.

Turning to A20G U41C U60A, the self-cleavage stood at 0.57. The result for A20G U49C A64U U67C U80C reads 0.11; that for A20G G24A C40U U66C U78C, 0.24. For the variant A20G U25C A35U U54C U74C, the self-cleavage amounted to 0.11. The figure for A20G U49C A65G U66C is 0.5; for A20G U31C A45G A56G it is 0.21; for A20G U49C U78C it is 0.21. The result for A20U U26C A28G A65G U66A C68G C71G reads 0.14; that for A20U U26C C32U U43A, 0.04; that for A20U U26C U31C U72C U74C, 0.11. Consider A20G U49C U51A A64U, for which the self-cleavage stood at 0.12. For the variant A20U C29A A45G, the self-cleavage was 0.12.

In the case of A20G U26C A65G U80C, the self-cleavage was found to be 0.19.

In the case of A21G A28G G30C U72A, the self-cleavage amounted to 0.1. The result for A20G U26C U43C A45C U80C reads 0.39; that for A20G C34U A35G U41C A56G U66C A75G, 0.09; that for A21G A35U A47G U51C U54A, 0.13. The result for A20G U48C A56G U60A reads 0.09; that for A20U U31C U43C A64G U72C U80C, 0.06. The figure for A21C C23U C59U A64C A65G is 0.05; for A20G U31C A56U U67A it is 0.09.

Consider A20G U31C U54G U69A, for which the self-cleavage is 0.26. For A20U U25C U41C U51A U60C, the self-cleavage is 0.09. As to A20G U26A A45U U78C, the self-cleavage is 0.22. The figure for A21C U26A U67A is 0.09; for A20G U25A U54A A65G it is 0.07; for A20G U31C A35U A45G U51A A65C it is 0.06. Take A21G A28G U31A U51C A75U: the self-cleavage came to 0.08. For A20U C32A A77G, the self-cleavage came out at 0.07. The result for A20G U26C G30A A47G C68U G73C U74C reads 0.07; that for A20U A45G U54A, 0.3.

With A20U U31C U43C U60C, the self-cleavage stood at 0.15. The result for A20U A28C A45G A57G A64G reads 0.05. The figure for A20U G24U U25C U41A U66C U80A is 0.07. In the case of A20U U26C U78C, the self-cleavage came to 0.06. Consider A21G A35G U51A A65G U78C U80C, for which the self-cleavage stood at 0.71.
